In ChEMBL document CHEMBL1156829:
Where “and” joins values, the source holds several entries; their conditions need not be identical. Equal entries are not always repeated. In all, about 5,400 compounds were measured (“IFI”: median about 2, highest 2% from about 22 on). This is one part of the list.

Assay: NOVARTIS: Inhibition Frequency Index (IFI) - the number of HTS assays where a compound showed > 50% inhibition/induction, expressed as a percentage of the number of assays in which the compound was tested.
Assay type: functional

| Structure (SMILES) | IFI |
| --- | --- |
| COc1ccc(-c2csc(NC(=O)COc3ccccc3Cl)n2)cc1Br | 0% |
| COc1cc(Cl)c(C)cc1NC(=O)C1c2ccccc2C(=O)N(CC(C)C)C1c1cccs1 (stereo unspecified) | 9.09% |
| O=C(CCc1ccccc1)c1ccccc1OCC(O)CN1CCCCC1 (stereo unspecified) | 1.46% |
| CC1=C(C(=O)OC(C)C)C(c2ccccc2F)C2=C(CC(C)(C)CC2=O)N1 (stereo unspecified) | 0% |
| Cc1oc(-c2cccs2)nc1CN1CCC(CO)(CCOc2ccccc2)CC1 | 0% |
| CCOC(=O)c1c(NC(=O)C(C)Sc2nnc(CNC(=O)c3ccco3)n2-c2cccc(C(F)(F)F)c2)sc2c1CCC2 (stereo unspecified) | 2.5% |
| OC1=C2C(=Nc3ccccc3SC2c2ccco2)c2ccccc21 (stereo unspecified) | 1.5% |
| Cc1cccc2nc(N)nc(N)c12 | 0% |
| Cc1cc(Nc2cccc(C(F)(F)F)c2)nc(N)n1 | 0% |
| Cc1ccccc1CSc1ccc(-c2cccs2)nn1 | 12.5% |
| COc1cc([C@@H]2OC[C@@H]3[C@H]2CO[C@H]3c2cc(OC)c(O[C@@H]3O[C@H](CO)[C@@H](O)[C@H](O)[C@H]3O)c(OC)c2)cc(OC)c1O | 0% |
| OC(COc1ccc(OCC(O)CN2CCN(CCOc3ccccc3)CC2)cc1)CN1CCN(CCOc2ccccc2)CC1 (stereo unspecified) | 7.14% |
| CN1C(=O)N(C)C(NNC(N)=S)C1NNC(N)=S (stereo unspecified) | 14.3% |
| Cc1cc(C)c2c(c1)OC(N)(C(Cl)(Cl)Cl)CC2=O (stereo unspecified) | 2.27% |
| COc1ccc(C=NNc2nc(Nc3ccc([N+](=O)[O-])cc3)nc(N3CCN(C)CC3)n2)cc1OC | 5.88% |
| CCCCNC(=O)c1ccc(OC2CCN(CC3CCCCC3)CC2)c(Cl)c1 | 1.41% |
| COc1cc(C(=O)Nc2ccc3nc4n(c(=O)c3c2)CCCCC4)cc(OC)c1OC | 0% |
| c1ccc(-c2cc(NCc3ccco3)nc(-c3ccccn3)n2)nc1 | 7.69% |
| COC(=O)c1ccc(N(C(=O)Cc2c[nH]c3ccccc23)C(C(=O)NC2CCCCC2)c2cccnc2)cc1 (stereo unspecified) | 3.64% |
| CC(=O)N(C1=C(N2CCCC2)C(=O)c2ccccc2C1=O)c1ccc(F)cc1 | 8.11% |
| O=C(C1CC1)N1CCc2cc(Br)cc(S(=O)(=O)N3CCCC3)c21 | 0% |
| CCOc1ccc(C2C(=O)N(C3CCCCC3)CC(=O)N2Cc2ccc(F)cc2)cc1OC (stereo unspecified) | 0% |
| COc1ccc(CCNc2nc(NCCC3CCCN3C)ncc2C(=O)NCc2ccccc2)cc1OC (stereo unspecified) | 1.92% |
| COc1cc(C=NNc2nc3ccccc3[nH]2)cc(Br)c1O | 7.69% |

| Structure (SMILES) | IFI |
| --- | --- |
| N#CC(c1ccc(C(F)(F)F)cc1)c1ccc2c(C(F)(F)F)cc(C(F)(F)F)nc2n1 (stereo unspecified) | 26.3% |
| Cn1nc(C(=O)N2CCCCCC2)c2c1CCC(NCC(C)(C)N1CCOCC1)C2 (stereo unspecified) | 1.21% |
| Sc1nnc(-c2ccncc2)n1CCc1ccccc1 | 1.51% |
| CCCCNC(=O)c1nn(-c2ccc(OC)cc2)c(=O)c2ccccc12 | 2.35% |
| CCN(CC)S(=O)(=O)c1cc(S(=O)(=O)c2ccc(Cl)c(S(=O)(=O)N(CC)CC)c2)ccc1Cl | 1.49% |
| CCn1c(-c2ccc(O)cc2)nn(CN2CCN(Cc3ccc4c(c3)OCO4)CC2)c1=S | 0% |
| Cc1ccc2[nH]c3c(NCCN4CCCC4)ncnc3c2c1 | 8% |
| CCn1c(N=Nc2ccc(OC)cc2)nc2ccccc21 | 7.69% |
| COc1cc(-c2nc(-c3ccc(Sc4ccccc4)cc3)c(-c3ccccc3)[nH]2)cc(OC)c1O | 4.65% |
| CCN(CC)Cc1cc(Nc2nc3ccccc3[nH]2)cc(CN(CC)CC)c1O | 0% |
| Cc1cc(C)n2nc(-c3ccc(Cl)cc3)cc2n1 | 5.52% |
| C/C(Cl)=C/Cc1c(C)nc2c(ccc3ccccc32)c1O | 0% |
| O=C(NCCCCCCCCNC(=O)Nc1ccc(C2=NCCN2)cc1)Nc1ccc(C2=NCCN2)cc1 | 0% |
| c1ccc(N=c2n(-c3ccccc3)c(=Nc3ccccc3)n(-c3ccccc3)c(=Nc3ccccc3)n2-c2ccccc2)cc1 | 0% |
| Cc1cc(C)n(N=Cc2ccc(Cl)cc2)c(=O)c1C#N | 0% |
| CCOC(=O)c1[nH]c(C)c(CNc2cccc(F)c2)c1C | 0% |
| CCn1c(SCCNC(=O)CC(C)C)nc(-c2ccccc2)c1-c1ccccc1 | 3.81% |
| CCN1/C(=C\C=C\C2=[N+](C)c3ccccc3C2(C)C)N(c2ccccc2)c2ccccc21 | 28.6% |
| CCCCc1c(CCC)c(=N)c2ccccc2n1C | 4.54% |
| COc1cc(OC)c(NC(=O)c2ccc(N3CC4CC(C3)c3cccc(=O)n3C4)c([N+](=O)[O-])c2)cc1Cl (stereo unspecified) | 0% |
| CCN1CCC(NC2CCCc3c2[nH]c2ccc([N+](=O)[O-])cc32)CC1 (stereo unspecified) | 7.14% |
| COc1ccc(C2CC(=O)C3=C(C2)NC(C)=C(C(=O)OC(C)C)C3c2cccc(Cl)c2Cl)cc1OC (stereo unspecified) | 4.76% |
| COc1cccc(-c2cc(C(=O)Nc3cc(Cl)ccc3O)on2)c1 | 0% |
| Cc1cc2nc(NC(=N)N)nc(C)c2cc1C | 0% |

| Structure (SMILES) | IFI |
| --- | --- |
| Cc1c(C=O)c2ccccc2n1CC(=O)Nc1cccc(I)c1 | 7.69% |
| COc1ccc(N2CCN(C(=O)C3=C(C)C(=O)OC34CCCCC4)CC2)cc1 | 0% |
| CCN(CC)S(=O)(=O)c1ccc(C(=O)NCc2nnc(SCC(=O)N3CCc4ccccc43)n2-c2ccccc2OC)cc1 | 3.57% |
| Cc1cc(Nc2ccc(C)c(F)c2)n2nc(C)nc2n1 | 2% |
| COc1cccc(CCOc2ccc3c(c2)C(=O)N(C(C(=O)NC(C)(C)C)c2cccc(OC)c2)C(CO)C(=O)N3)c1 (stereo unspecified) | 2.3% |
| C=C(C)[C@@]12O[C@@H]1[C@@]1(C)C(=CC2=O)CC[C@@H](O)[C@@H]1C | 5.17% |
| CCOC(=O)C1=C(N)n2c(sc(=Cc3cccnc3)c2=O)=C(C(=O)OC)C1c1cccnc1 (stereo unspecified) | 0% |
| FC(F)(F)c1cccc(-c2nc3c(s2)CN(C2CCCC2)CC3)c1 | 2.78% |
| Fc1ccc(Nc2nc(NCc3ccco3)c3ccccc3n2)cc1 | 9.68% |
| COc1cccc(-c2ccc(O)c(CNC3CCN(Cc4ccccc4)CC3)c2)n1 | 4.31% |
| CCCCc1ccc(C(=O)NCCCN(C(=O)Nc2ccc([N+](=O)[O-])cc2)c2ccccc2)cc1 | 2.08% |
| CCOc1ccc(Nc2cc(C)nc(Nc3ccc(OCC)cc3)n2)cc1 | 4.62% |
| O=C(Nc1cccc(N2CCC(NCC3CCCCC3)CC2)c1)C1CC1 | 0% |
| COc1ccc(C=NNc2nc3cc(Cl)ccc3[nH]2)cc1OC | 0% |
| O=C(Nc1ccc(-c2nc3cc(NC(=O)c4cccc([N+](=O)[O-])c4)ccc3[nH]2)cc1)c1cccc([N+](=O)[O-])c1 | 16.9% and 0% |
| CC(=O)OC1CCC2(C)C(CCC3C2CCC2(C)C3CC(O)C2(O)C(C)=O)C1 (stereo unspecified) | 0% |
| COc1ccc(N(CCCNC(=O)CCl)C(=O)Nc2cccc(Cl)c2)cc1 | 0.926% |
| CCn1c(SCCCCNC(=O)c2cc([N+](=O)[O-])cc([N+](=O)[O-])c2)nc(-c2ccc(C)cc2)c1-c1ccc(C)cc1 | 2.86% |
| Cc1ccc(-c2nc3cc(NC(=O)c4ccc([N+](=O)[O-])o4)ccc3o2)cc1Br | 18.2% |
| O=C(NCCc1ccc(-c2ccccc2)cc1)c1ccc(NS(=O)(=O)C(F)(F)F)cc1 | 2.78% |
| COc1ccc(C=NNc2cc(C)nc3ccccc23)cc1 | 15.4% |
| CCN(CC)CCCN(Cc1cc2ccc(OC)cc2[nH]c1=O)C(=S)NCc1ccccc1 | 3.42% |
| Oc1ccc(-c2ccccc2)cc1CNC1CCCCC1 | 1.68% |
| CC(C)NC(=O)c1cc(NC(=O)c2cccs2)ccc1N1CCc2ccccc2C1 | 3.12% |

| Structure (SMILES) | IFI |
| --- | --- |
| CC1=C(C=CC(C)C=NNC(=O)c2ccncc2)C(C)(C)CCC1 (stereo unspecified) | 0% |
| CN(C)CC(C)(C)CNCc1cc(-c2ccccc2)ccc1O | 1.74% |
| CCN1/C(=C\c2sc3ccc(O)cc3[n+]2CC)C=Cc2ccccc21 | 23.1% |
| CC(=O)O[C@@H]1C(=O)[C@@]2(C)[C@H]([C@H](OC(=O)c3ccccc3)[C@@]3(O)C[C@H](OC(=O)[C@H](O)[C@@H](NC(=O)c4ccccc4)c4ccccc4)C(C)=C1C3(C)C)[C@]1(OC(C)=O)CO[C@@H]1C[C@@H]2O | 11.8% |
| CCCCOc1ccc(C(=O)NCCOc2cccc(OC)c2)cc1 | 1.51% |
| CC(C)CC(=O)NCCCCNc1ccnc2cc(Cl)ccc12 | 1.85% |
| CCOC(=O)C1=C(C)NC2=C(C(=O)CC(C)(C)C2)C1c1ccc(Cl)cc1Cl (stereo unspecified) | 5.81% |
| Cc1ccc(-n2c(=S)sc3c(=O)n(-c4ccccc4)c(SCC(=O)c4ccccc4)nc32)cc1C | 0% |
| Oc1ccc(-c2cccnc2)cc1CNC1C2CC3CC(C2)CC1C3 (stereo unspecified) | 0% |
| CCOC(=O)C1=C(c2ccccc2)N=c2sc(=Cc3cccnc3)c(=O)n2C1c1c(OC)ccc2ccccc12 (stereo unspecified) | 0% |
| O=C(COC(c1ccccc1)c1c(Cl)cncc1Cl)N1CCNCC1 (stereo unspecified) | 3.96% |
| Cc1ccc(-c2nc3cc(NC(=O)c4ccc(Cl)cc4Cl)ccc3o2)cc1 | 0% |
| CC1CCCCN1CCCNc1ncc(C(=O)NCCc2ccccc2)c(Nc2ccccc2)n1 (stereo unspecified) | 2.88% |
| CCCCNCCN1CCN(c2ccc3ccccc3c2)C[C@@H]1c1ccccc1 | 7.32% |
| CCNC(=O)[C@@H]1C[C@@H](NC2C3CC4CC(C3)CC2C4)CN1Cc1cccc(OC)c1OC (stereo partly specified) | 0.98% |
| CCCS(=O)(=O)N1CCC(CO)(Cc2ccccc2C(F)(F)F)CC1 | 0% |
| CCN(CC)CCCC(C)Nc1cc(/C=C/c2ccc([N+](=O)[O-])cc2)nc2cc(OC)ccc12 (stereo unspecified) | 3.61% |
| CCCCNC(=O)C(c1cccc(OC)c1)N1C(=O)c2cc(OCCc3cccc(OC)c3)ccc2NC(=O)C1CO (stereo unspecified) | 1.16% |
| Oc1ccc(-c2ccc(F)cc2)cc1CNCCN1CCOCC1 | 0.855% |
| CCOc1ccc(Nc2cc(C)nc3ccc(OCC)cc23)cc1 | 3.45% |
| OCCNc1nc(Nc2ccc(F)cc2)nc2ccccc12 | 2.94% |
| COc1ccc(CNC(=O)CCc2cn(Cc3cc(C)ccc3C)c3ccccc23)cc1OC | 0% |
| COc1ccc2c(Cl)c(C(=O)Nc3cc(C)on3)sc2c1Cl | 0% |
| Cc1cc(NC(=O)/C=C/c2ccccc2Cl)ccc1Br | 0% |
